# Source: article PMC4336329 (PLoS ONE, 2015)
# About 14,000 (4.5%) of roughly 310,000 compounds showed an effect of 50% or more. Effects have a minus sign here. Some of the results follow.
# Target: human ether-à-go-go-related gene (hERG) potassium channel (human, UniProt Q12809)
# Test: primary screen, population patch clamp on CHO cells stably expressing hERG
# 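Further: peak tail current of the secondary pulse compared with the same well before compound.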
# Chain of human ether-à-go-go-related gene (hERG) potassium channel (Q12809 whole entry, looked up): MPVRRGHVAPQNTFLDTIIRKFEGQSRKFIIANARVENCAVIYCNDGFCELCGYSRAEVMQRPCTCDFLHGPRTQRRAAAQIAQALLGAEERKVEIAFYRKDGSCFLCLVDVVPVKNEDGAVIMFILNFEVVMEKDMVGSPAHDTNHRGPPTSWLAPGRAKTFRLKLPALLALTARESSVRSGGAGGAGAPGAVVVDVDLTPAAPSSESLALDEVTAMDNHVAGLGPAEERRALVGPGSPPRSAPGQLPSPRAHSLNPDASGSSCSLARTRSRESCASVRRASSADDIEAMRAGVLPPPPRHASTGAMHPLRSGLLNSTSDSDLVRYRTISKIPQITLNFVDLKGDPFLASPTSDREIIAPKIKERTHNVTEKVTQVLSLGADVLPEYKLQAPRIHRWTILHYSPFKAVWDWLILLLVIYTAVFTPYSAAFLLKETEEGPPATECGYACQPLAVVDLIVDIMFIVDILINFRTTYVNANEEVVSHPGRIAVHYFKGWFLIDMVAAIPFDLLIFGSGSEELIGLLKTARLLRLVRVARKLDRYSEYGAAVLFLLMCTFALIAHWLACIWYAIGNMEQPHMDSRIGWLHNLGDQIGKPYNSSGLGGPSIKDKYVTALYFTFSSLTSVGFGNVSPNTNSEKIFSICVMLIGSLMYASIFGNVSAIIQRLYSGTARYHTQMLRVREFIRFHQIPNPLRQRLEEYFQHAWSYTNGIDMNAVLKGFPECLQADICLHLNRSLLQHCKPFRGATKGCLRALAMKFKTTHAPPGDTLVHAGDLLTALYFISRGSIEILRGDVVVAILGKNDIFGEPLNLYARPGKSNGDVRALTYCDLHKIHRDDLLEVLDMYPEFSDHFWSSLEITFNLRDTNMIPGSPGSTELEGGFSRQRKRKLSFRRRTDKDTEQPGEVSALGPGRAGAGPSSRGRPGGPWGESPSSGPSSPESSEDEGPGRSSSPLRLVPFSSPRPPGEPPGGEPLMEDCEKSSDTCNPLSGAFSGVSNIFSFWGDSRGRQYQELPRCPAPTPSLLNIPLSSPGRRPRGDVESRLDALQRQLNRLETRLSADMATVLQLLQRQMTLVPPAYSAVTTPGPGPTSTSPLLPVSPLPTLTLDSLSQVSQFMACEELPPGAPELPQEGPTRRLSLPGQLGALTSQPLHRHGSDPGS
row,Structure (SMILES),"hERG current change (%, negative = inhibition) at 10uM"
1,COc1cccc(CNC(=O)c2ccc(NC3=NC4CS(=O)(=O)CC4S3)cc2)c1 (stereo not shown),1.43%
2,COc1cccc(-c2noc(N)c2C#N)c1,-11.6%
3,COc1ccccc1NS(=O)(=O)c1cccc(NC(=O)c2cc3ccccc3oc2=O)c1,40.8%
4,COc1nc(C#N)c(N2CCOCC2)o1,8.06%
5,COC(=O)c1[nH]c2ccccc2c1NC(=O)CN1CC(C)OC(C)C1 (stereo not shown),0.295%
6,COc1ccc(C2CC(C)=NN2C=O)cc1OC (stereo not shown),19.6%
7,Cc1ccc(C(=O)Nc2ccccc2C(=O)NCc2ccccc2)cc1,5.63%
8,CCOc1ccc(N2C(=O)CC(N(O)c3ccccc3)C2=O)cc1 (stereo not shown),2.96%
9,COc1ccc(-c2cc(=Nc3ccc(C(=O)O)cc3)c3cc(C)ccc3o2)cc1,12.7%
10,Cc1ccc(C(=O)O)cc1NC(=O)Nc1ccc2c(c1)OCO2,30.3%
11,CCCCC[C@H]1CN(CCCC)C(=O)[C@@H]1CC(=O)NCc1ccc(OC)cc1,-71%
12,CC(C)CCNC(=O)C(c1ccc(O)cc1)N(Cc1ccco1)C(=O)CCC(=O)Nc1nccs1 (stereo not shown),-41.2%
13,CCN(CC)c1ccc(/C=N/n2c(C)cc(C)cc2=O)cc1,-5.07%
14,C1CCc2c(nc3nnnn3c2NCC2CC2)C1,-5.16%
15,CC(C)(C)c1ccc(/C=C/C(=O)NCCCN2CCOCC2)cc1,-35.9%
16,N#Cc1cccc2c1-c1ccccc1/C2=N/NC(N)=O,7.49%
17,CCCCN(C(=O)c1cccc(S(=O)(=O)N2CCCCC2)c1)C1CCS(=O)(=O)C1 (stereo not shown),-52.1%
18,CC1CN(C(=O)COC(=O)c2ccc(F)cc2Cl)CC(C)O1 (stereo not shown),2.56%
19,Cc1cc(C)n(-c2nc3ccccc3n3cnnc23)n1,-16.1%
20,O=C(c1ccc(NC2=NC3CS(=O)(=O)CC3S2)cc1)N1CCN(c2ccc(F)cc2)CC1 (stereo not shown),6.4%
21,O=C(NCc1cccc(F)c1)c1ccc2nc(N3CCOCC3)sc2c1,-10.7%
22,CCCC(=O)NCCCc1nc2ccccc2n1C(C)C,-14.3%
23,O=C(NCc1ccncc1)C12CC3CC(CC(Cl)(C3)C1)C2,1.83%
24,CCOC(=O)C1CCCN(C(=O)c2cc3cc(OC)c(OC)cc3[nH]2)C1 (stereo not shown),14.1%
25,Cc1cc(NC(=O)CN2C(=O)[C@@H]3[C@H](C2=O)[C@@H]2C[C@H]3C(Br)C2Br)no1 (stereo partly shown),7.77%
26,CC(CNC(=O)CN1C(=O)C(=O)N(C2CCCC2)C1=O)c1ccccc1 (stereo not shown),-3.6%
27,Cc1ccc(N2CC(O)=C(c3nc4ccccc4c(=O)[nH]3)C2=N)cc1C,1.33%
28,COc1cccc(-c2nc(-c3ccc(NC(=O)c4cccs4)cc3)no2)c1,14.1%

row,Structure (SMILES),"hERG current change (%, negative = inhibition) at 10uM"
1,COc1cc(OC)c(S(=O)(=O)NCc2ccco2)cc1S(=O)(=O)NCc1ccco1,-13.5%
2,CC(/C=N\NC(=O)c1ccc2c(c1)OCO2)c1ccccc1 (stereo not shown),11.4%
3,CC(=O)Nc1ccc(S(=O)(=O)Nc2nc3ccccc3nc2Nc2ccc(S(N)(=O)=O)cc2)cc1,-3.54%
4,O=C(NC(=S)Nc1nc(-c2ccccc2)cs1)c1cccs1,18.1%
5,Cc1c(S(=O)(=O)N2CCc3ccccc3C2)c(=O)n(C)c(=O)n1C,-4.24%
6,Cc1cccc(C(=O)N2CCCCCC2)c1,2.61%
7,CS(=O)(=O)c1ccc(C(=O)N2CCC(C(=O)O)(c3ccccc3)CC2)cc1,35.2%
8,C[N+](C)(C)CC(=O)N/N=C/c1c2ccccc2cc2ccccc12.[Cl-],-6.73%
9,CCOC(=O)[C@@H]1[C@H]2COc3ccc(Br)cc3[C@@H]2N2C(=O)N(c3ccccc3)C(=O)[C@@]12C,-5.89%
10,COc1cc(NC(=O)c2ccc(C(C)(C)C)cc2)c(OC)cc1NC(=O)CN1CCCCC1,15.5%
11,COC(=O)Nc1ccc(SCC(=O)c2cccc([N+](=O)[O-])c2)cc1,-4.15%
12,CCCCOc1ccc(CSc2nnc(C)n2N)cc1[N+](=O)[O-],-31.5%
13,CC(C)CCNC(=O)[C@H](CSCc1ccccc1)N1Cc2ccccc2C1=O,-61%
14,CC1CCN(S(=O)(=O)c2ccc(S(=O)(=O)N3CCC4(CC3)OCCO4)cc2)CC1,-1.06%
15,CC(=O)N1N=C(c2cccs2)CC1c1ccco1 (stereo not shown),9.83%
16,N#Cc1cc2nc([O-])c([O-])nc2cc1[N+](=O)[O-].[Na+],17.8%
17,Cn1cccc1/C=C1\SC(=O)N(CC(=O)Nc2ccc(Cl)cc2)C1=O,22.1%
18,CCOc1ccccc1N1CCN(Cc2cccc(OC)c2O)CC1,-25.8%
19,COc1ccc(CN(C2CCCC2)S(=O)(=O)c2ccc(-n3cnnn3)c(OC)c2)cc1OC,-28.1%
20,CCOC(=O)c1ccc(NC(=O)CNS(=O)(=O)c2ccccc2)cc1,8.6%
21,Cc1c(C(=O)Nc2ccc(F)cc2)nnn1-c1cccc(C(F)(F)F)c1,1.52%
22,CC(=O)Nc1cccc(/C(C)=N/NC(=O)c2c(-c3ccccc3Cl)noc2C)c1,-2.37%
23,COc1ccc(CNC(=O)C2Cc3ccccc3CN2C(=O)c2ccco2)cc1 (stereo not shown),-49%
24,COc1ccc(Cl)cc1S(=O)(=O)N1CCN(c2ccc(F)cc2)CC1,-23.1%
25,CSc1c(CC(=O)Nc2ccc(F)cc2)n(Cc2ccccc2)c2ccccc12,-7.56%
26,COc1ccc(C)cc1C(=O)CCC(=O)Nc1ccccc1N1CCOCC1,1.65%
27,CC1(C)Cc2ccccc2C(=C(C#N)C#N)N1,-2.25%
